Measurements reported in the supplement of paper PMC9446081.
Screen size: about 39,000 compounds; about 220 (0.56%) showed activity. The list shows a part of the results.

What follows are molecules tested on Escherichia coli K-12 BW25113 (assay: relative growth (OD600 normalised to plate interquartile mean) (fraction); higher = less growth inhibition, active = 0.2 or less). Conditions: 50 µM; LB; incubation time: overnight (16-24 h).
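Also: static incubation at 37 °C against the wild-type strain, values averaged over two biological replicates.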

Row | SMILES | relative growth
1 | CNC(=O)c1c(O)c2ccccc2[nH]c1=O | inactive: 0.971
2 | COc1ccc(S(=O)(=O)Nc2ccc3c(c2)C(=O)N([C@H](C)CO)C[C@@H](C)[C@@H](CN(C)C(=O)Nc2c(C)noc2C)O3)cc1 | inactive: 1
3 | C[C@H]1CN([C@@H](C)CO)C(=O)c2cccc(NS(C)(=O)=O)c2O[C@@H]1CN(C)S(=O)(=O)c1ccc(Cl)cc1 | inactive: 0.999
4 | C[C@H]1CN([C@@H](C)CO)C(=O)c2cc(-c3ccncc3)cnc2O[C@H]1CN(C)C(=O)Nc1ccc2c(c1)OCO2 | inactive: 0.991
5 | C=CCC[C@H](Cc1ccc(F)cc1)C(=O)OC[C@@H]1CCCN1C(=O)[C@@H](CC=C)CC(=O)N(CCO)Cc1ccccc1 | inactive: 1.01
6 | O=C(C[C@H]1C[C@H]2c3cc(NS(=O)(=O)c4ccccc4)ccc3O[C@H]2[C@H](CO)O1)NCC(F)(F)F | inactive: 0.98
7 | C[C@@H]1CN([C@H](C)CO)C(=O)Cc2cc(NC(=O)Nc3ccc(C(F)(F)F)cc3)ccc2O[C@@H]1CN(C)S(=O)(=O)c1ccc(Cl)cc1 | inactive: 1.04
8 | NC[C@@H](O)c1ccc2ccccc2c1 | inactive: 0.983
9 | C=CC(=O)N[C@@H]1CN(c2nc(Nc3cn(C)nc3OC)c3ncn(C)c3n2)C[C@H]1F | inactive: 1.01
10 | O=C(C[C@@H]1CC[C@H]2[C@@H](COC[C@H](O)CN2S(=O)(=O)c2ccc(F)cc2)O1)NCc1ccc(Cl)c(Cl)c1 | inactive: 1.01
11 | C[C@@H]1CCCCO[C@H](CN(C)C(=O)Nc2ccc(C(F)(F)F)cc2)[C@@H](C)CN([C@@H](C)CO)C(=O)c2cc(NC(=O)c3ccncc3)ccc2O1 | inactive: 0.979
12 | CC(=O)N[C@@H]1CC[C@@H](CCNC(=O)C2CC2)O[C@H]1CO | inactive: 0.97
13 | C[C@H](CO)N1C[C@H](C)[C@H](CN(C)Cc2ccc(Oc3ccccc3)cc2)Oc2c(NC(=O)CCCCCC(=O)Nc3ccccc3N)cccc2C1=O | inactive: 1.04
14 | Cc1noc(C)c1S(=O)(=O)Nc1ccc2c(c1)C(=O)N([C@H](C)CO)C[C@@H](C)[C@H](CN(C)Cc1ccccc1)O2 | inactive: 1.05
15 | C1CC2(CCN1)OCCS2 | inactive: 1.02
16 | Cc1noc(C)c1NC(=O)Nc1ccc2c(c1)CC(=O)N([C@@H](C)CO)C[C@H](C)[C@H](CN(C)S(=O)(=O)c1c(C)noc1C)O2 | inactive: 0.996
17 | CC(C)(C)[S@@](=O)N1Cc2cc(C(=O)N[C@@H]3CCN(Cc4ccccc4)C3)nc(-c3cccc(-c4ccncc4)c3)c2[C@H]1CCO | inactive: 1.01
18 | C[C@H](CO)N1C[C@H](C)[C@H](CN(C)C(=O)CN(C)C)Oc2cc(C#Cc3ccccc3)ccc2S1(=O)=O | inactive: 0.986
